The supplement of paper PMC4604168 (melanoma cell lines)
This is one part of the list. Single values are uncertain, as repeats are few or missing.

Key:
Experiment in all cases: cell count relative to DMSO control; melanoma cells; higher = more viable cells
Conditions in all cases: library dose: low library concentration; 72 h
[1] = tested on: MZ2-MEL
[2] = tested on: MeWo
[3] = tested on: RPMI7951
[4] = tested on: RVH-421
[5] = tested on: SkMel28
[6] = tested on: SkMel2
[7] = tested on: SkMel30
[8] = tested on: UACC62
[9] = tested on: WM115
[10] = tested on: WM1716
[11] = tested on: WM1745
[12] = tested on: WM3526
[13] = tested on: WM3619
[14] = tested on: WM451Lu
[15] = tested on: SkMel5
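Note: cell number obtained by counting DAPI-stained nuclei in high-throughput microscope images with image analysis software, screen run in 1,536-well plates.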

Compound	cell count [1]	cell count [2]	cell count [3]	cell count [4]	cell count [5]	cell count [6]	cell count [7]	cell count [8]	cell count [9]	cell count [10]	cell count [11]	cell count [12]	cell count [13]	cell count [14]	cell count [15]
Cc1cc(Nc2cc(N3CCN(C)CC3)nc(Sc3ccc(NC(=O)C4CC4)cc3)n2)n[nH]1 [Tozasertib] + O=C(/C=C/c1cccnc1)NCCCCC1CCN(C(=O)c2ccccc2)CC1 [FK866] (first compound 0.006 µM, partner dose 0.01 µM)	54.1%	85.1%	84%	111%	67.5%	54.5%	113%	97%	84.7%	76.4%	88%	76.1%	86.5%	106%	–
N#CC[C@H](C1CCCC1)n1cc(-c2ncnc3[nH]ccc23)cn1 [ruxolitinib] + CC1(C)NC(=O)N(c2ccc([N+](=O)[O-])c(C(F)(F)F)c2)C1=O [nilutamide] (first compound 1 µM, partner dose 1 µM)	103%	83%	109%	93.9%	112%	92.8%	–	117%	103%	103%	88.8%	111%	94.7%	125%	117%
N#CC[C@H](C1CCCC1)n1cc(-c2ncnc3[nH]ccc23)cn1 [ruxolitinib] + COc1cc([C@@H]2c3cc4c(cc3[C@@H](O[C@@H]3O[C@@H]5CO[C@@H](C)O[C@H]5[C@H](O)[C@H]3O)[C@H]3COC(=O)[C@H]23)OCO4)cc(OC)c1O [etoposide] (first compound 1 µM, partner dose 0.02 µM)	112%	91.1%	96.6%	104%	104%	104%	121%	116%	104%	97.5%	106%	120%	109%	101%	–
Cc1cc(Nc2cc(N3CCN(C)CC3)nc(Sc3ccc(NC(=O)C4CC4)cc3)n2)n[nH]1 [Tozasertib] + Cc1nc(Nc2ncc(C(=O)Nc3c(C)cccc3Cl)s2)cc(N2CCN(CCO)CC2)n1 [dasatanib] (first compound 0.006 µM, partner dose 0.004 µM)	78.3%	86.7%	78.2%	64.9%	79.5%	92.6%	83%	87.6%	64.2%	77.9%	56.6%	100%	75.9%	64.5%	–
CC[C@]1(O)C[C@H]2CN(CCc3c([nH]c4ccccc34)[C@@](C(=O)OC)(c3cc4c(cc3OC)N(C=O)[C@H]3[C@@](O)(C(=O)OC)[C@H](OC(C)=O)[C@]5(CC)C=CCN6CC[C@]43[C@@H]65)C2)C1 [vincristine] + C[C@@H](N)c1ccc(C(=O)Nc2ccnc3[nH]ccc23)cc1 [RKI983] (first compound 0.0001 µM, partner dose 0.4 µM)	69.1%	60%	46.9%	59.2%	56.3%	76.2%	50.6%	42.7%	53.7%	30.8%	91.5%	70%	50.6%	62.2%	–
CC[C@]1(O)C[C@H]2CN(CCc3c([nH]c4ccccc34)[C@@](C(=O)OC)(c3cc4c(cc3OC)N(C=O)[C@H]3[C@@](O)(C(=O)OC)[C@H](OC(C)=O)[C@]5(CC)C=CCN6CC[C@]43[C@@H]65)C2)C1 [vincristine] + CC(C)C[C@H](NC(=O)[C@H](Cc1ccccc1)NC(=O)c1cnccn1)B(O)O [Bortezomib] (first compound 0.0001 µM, partner dose 0.001 µM)	88.6%	69.8%	31.8%	58%	80.1%	91.2%	70.4%	47.4%	56.2%	29.4%	64.5%	72.1%	28.1%	48.5%	–
Cc1cc(Nc2cc(N3CCN(C)CC3)nc(Sc3ccc(NC(=O)C4CC4)cc3)n2)n[nH]1 [Tozasertib] + CS(=O)(=O)c1ccc(C(=O)Nc2ccc(Cl)c(-c3ccccn3)c2)c(Cl)c1 [vismodegib] (first compound 0.006 µM, partner dose 1 µM)	97.7%	88.4%	100%	92.3%	91.1%	99.1%	102%	85.2%	89.5%	104%	80.3%	95.2%	96.9%	105%	–
N#CC[C@H](C1CCCC1)n1cc(-c2ncnc3[nH]ccc23)cn1 [ruxolitinib] + Cc1nc(Nc2ncc(C(=O)Nc3c(C)cccc3Cl)s2)cc(N2CCN(CCO)CC2)n1 [dasatanib] (first compound 1 µM, partner dose 0.004 µM)	75.4%	89%	72.7%	92.9%	91.5%	96.7%	98.7%	74.6%	86.1%	89.5%	65%	93.6%	97.1%	87.4%	–
Cc1cc(Nc2cc(N3CCN(C)CC3)nc(Sc3ccc(NC(=O)C4CC4)cc3)n2)n[nH]1 [Tozasertib] + CCCS(=O)(=O)Nc1ccc(F)c(C(=O)c2c[nH]c3ncc(Cl)cc23)c1F [PLX4720] (first compound 0.006 µM, partner dose 0.08 µM)	83.6%	92.5%	101%	68.4%	90%	89.9%	90.1%	49.1%	87.2%	103%	89%	84.2%	90.7%	90.1%	–
CC[C@]1(O)C[C@H]2CN(CCc3c([nH]c4ccccc34)[C@@](C(=O)OC)(c3cc4c(cc3OC)N(C=O)[C@H]3[C@@](O)(C(=O)OC)[C@H](OC(C)=O)[C@]5(CC)C=CCN6CC[C@]43[C@@H]65)C2)C1 [vincristine] + O=C(/C=C/c1cccnc1)NCCCCC1CCN(C(=O)c2ccccc2)CC1 [FK866] (first compound 0.0001 µM, partner dose 0.01 µM)	46.1%	80.4%	58.3%	55.5%	90%	53.9%	59.9%	63.8%	55.3%	47.5%	88.8%	78.9%	52.2%	50.2%	–
CC[C@]1(O)C[C@H]2CN(CCc3c([nH]c4ccccc34)[C@@](C(=O)OC)(c3cc4c(cc3OC)N(C=O)[C@H]3[C@@](O)(C(=O)OC)[C@H](OC(C)=O)[C@]5(CC)C=CCN6CC[C@]43[C@@H]65)C2)C1 [vincristine] + COc1ccc(C2=N[C@@H](c3ccc(Cl)cc3)[C@@H](c3ccc(Cl)cc3)N2C(=O)N2CCNC(=O)C2)c(OC(C)C)c1 [Nutlin-3] (first compound 0.0001 µM, partner dose 0.1 µM)	101%	58.2%	53.4%	99.2%	68.4%	88.3%	44%	57.1%	45.7%	38.2%	69.2%	58.5%	42.9%	52.8%	–
N#CC[C@H](C1CCCC1)n1cc(-c2ncnc3[nH]ccc23)cn1 [ruxolitinib] + CC1(C)CCC(c2ccc(Cl)cc2)=C(CN2CCN(c3ccc(C(=O)NS(=O)(=O)c4ccc(N[C@H](CCN5CCOCC5)CSc5ccccc5)c(S(=O)(=O)C(F)(F)F)c4)cc3)CC2)C1 [ABT263] (first compound 1 µM, partner dose 0.4 µM)	93.3%	74.6%	49.8%	78.6%	119%	91.4%	89.2%	121%	95.6%	88%	23.7%	90.1%	79.6%	70.6%	–
N#CC[C@H](C1CCCC1)n1cc(-c2ncnc3[nH]ccc23)cn1 [ruxolitinib] + C[C@@H](Oc1cc(-c2cnn(C3CCNCC3)c2)cnc1N)c1c(Cl)ccc(F)c1Cl [Crizotinib] (first compound 1 µM, partner dose 0.2 µM)	99.6%	102%	132%	133%	120%	112%	105%	102%	108%	–	108%	104%	109%	90.6%	–
N#CC[C@H](C1CCCC1)n1cc(-c2ncnc3[nH]ccc23)cn1 [ruxolitinib] + C[C@]1(O)C[C@@H](c2nc(-c3ccc4ccc(-c5ccccc5)nc4c3)c3c(N)nccn32)C1 [OSI906] (first compound 1 µM, partner dose 0.4 µM)	107%	93.8%	88.6%	109%	102%	95.2%	90.2%	108%	112%	98.9%	87.5%	–	103%	99.8%	–
CC[C@]1(O)C[C@H]2CN(CCc3c([nH]c4ccccc34)[C@@](C(=O)OC)(c3cc4c(cc3OC)N(C=O)[C@H]3[C@@](O)(C(=O)OC)[C@H](OC(C)=O)[C@]5(CC)C=CCN6CC[C@]43[C@@H]65)C2)C1 [vincristine] + COc1cc([C@@H]2c3cc4c(cc3[C@@H](O[C@@H]3O[C@@H]5CO[C@@H](C)O[C@H]5[C@H](O)[C@H]3O)[C@H]3COC(=O)[C@H]23)OCO4)cc(OC)c1O [etoposide] (first compound 0.0001 µM, partner dose 0.02 µM)	77.8%	82.4%	54.5%	98.5%	69%	84.7%	62.5%	49.1%	59.2%	45.6%	78%	72.8%	65%	50.6%	–
